To fix the notation:
B1: tRNA (parent)
chain: CUCUCGGUAGCCAAGUUGGUUUAAGGCGCAAGACUUUAAUUUAUCACUACGAAAUCUUGAGAUCGGGCGUUCGACUCGCCCCCGGGAGAUUUUUUCCUCGAGCAA

Variants at the floor of the assay are shown more often than the library holds them. Some results are limits rather than exact numbers.

The variants in the series derive from B1. In words: nonsense suppression (GFP-seq) (ratio to wild type); higher = more function; SUP4oc tRNA, yeast GFP reporter sort-seq. A digest of the protocol:
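Nonsense suppression (GFPSEQ) is the median GFP/RFP ratio of each sorting bin, weighted by the variant's estimated share of cells in that bin and expressed relative to the unmutated parent tRNA. Yeast strains carried genome-integrated variants of an ochre-suppressor tRNA from a library with ~3% random mutations, plus a galactose-driven GFP ochre reporter and RFP, and were grown in raffinose/galactose medium containing 80 mg/L adenine. Cells were sorted into GFP/RFP bins, each bin was Illumina-sequenced (phred ≥30), and variants were kept only with ≥100 reads and ≥30 cells.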
As to C1G U2C U22C C72G G78A, the nonsense suppression is at most 0.026.

Take G19C C27A U70A U76G: the nonsense suppression was at most 0.026. As for G32U C75A, the nonsense suppression was at most 0.026.

U4A C5U G7U C11A G25C: the nonsense suppression was at most 0.026.

As to A9G G67A, the nonsense suppression is at most 0.026. On to C5U A30U, for which the nonsense suppression worked out at 0.138. C1G U2A U17G G32C: the nonsense suppression is at most 0.026. Take G69U: the nonsense suppression was at most 0.026.

A9U U16A C29U A31U A33G A62C: the nonsense suppression was at most 0.026. U16C U70A: the nonsense suppression is at most 0.026. Take C5A A60G: the nonsense suppression is 0.0265. Regarding A9C C12G G18C G25C, the nonsense suppression was at most 0.026. In the case of G26U C75G C81U C83G, the nonsense suppression is at most 0.026. For U57C G66U G67C A87C the value was at most 0.026; for G19A C27G, at most 0.026. As for G18C C80A, the nonsense suppression was at most 0.026. Turning to G10A C12G, the nonsense suppression is at most 0.026. For G10A C34G U70C, the nonsense suppression is at most 0.026.

Turning to C3G C5A G59C G73A, the nonsense suppression is at most 0.026. Regarding G18C A30G, the nonsense suppression is at most 0.026.

A13C G18U G26A A31U: the nonsense suppression is at most 0.026. In the case of C29G C64G, the nonsense suppression is at most 0.026. Turning to G66A U76A, the nonsense suppression was at most 0.026. On to A9U U57A, for which the nonsense suppression was at most 0.026. With U2G U16C U17G G66C G85C, the nonsense suppression is at most 0.026. For U58G U70A, the nonsense suppression was at most 0.026.

G6U U35G U71G: the nonsense suppression was at most 0.026. Take U16G G26A G61C: the nonsense suppression was at most 0.026. Take C11G A62G C83U A87C: the nonsense suppression was at most 0.026. Next, U2G A62U C77U G85A: at most 0.026; U4G C5G C64A: at most 0.026; G10C G59A G78C A89U: at most 0.026. U63C G84U: the nonsense suppression is at most 0.026. On to G15C C27G A31C, for which the nonsense suppression was at most 0.026. U4G U22A G26A G66C C82G: the nonsense suppression is at most 0.026. On to C5A U35C U55A C80U, for which the nonsense suppression was at most 0.026. As for U76G G85A, the nonsense suppression was at most 0.026. For G28A A54C G88U the value was at most 0.026; for C29A U55G C79U, at most 0.026; for G7C C72G, at most 0.026. Turning to C3A U57G U58C G59A U63C, the nonsense suppression is at most 0.026. Turning to G10A A62C A87G, the nonsense suppression is at most 0.026.

As to A30U A54C U70G G88A, the nonsense suppression was at most 0.026. In the case of A9U U20C A23C G59U G66A, the nonsense suppression is at most 0.026.

In the case of G7A G10C G25U A89C, the nonsense suppression was at most 0.026.

As for G19C G26A C27G U71G G73A, the nonsense suppression is at most 0.026. As to U17C A23C, the nonsense suppression is at most 0.026. In the case of G6A C29A U71A, the nonsense suppression is at most 0.026. For the variant G10C G15U A31U A87C, the nonsense suppression is at most 0.026. Consider G25A A30C, for which the nonsense suppression was at most 0.026. A23C C29U: the nonsense suppression is at most 0.026. For U58G A74U C75A the value was at most 0.026; for A13C A23U G69A, at most 0.026; for G10C A89G, at most 0.026. For the variant U4G U20A, the nonsense suppression came to 0.0644. As to G25A A33G, the nonsense suppression was at most 0.026. Next, U16A U63A G67U C75U G85U: at most 0.026. U16C G18U C27A G88A: the nonsense suppression is at most 0.026. In the case of G32A C34U A60C G84A A87U, the nonsense suppression was at most 0.026.

On to A9C U70A, for which the nonsense suppression was at most 0.026. On to A24C G25U G26U G69C, for which the nonsense suppression was at most 0.026.

As for C12U G26U, the nonsense suppression was at most 0.026. In the case of U17G G59U, the nonsense suppression is at most 0.026. Regarding G19C U55A C81U, the nonsense suppression is at most 0.026.

Consider U57A U70C, for which the nonsense suppression was at most 0.026. Next, U16C A54C: 1.22; A33G U55C G85C A89C: at most 0.026; U17A U21C G85A: 1.06.

For A13G C29G A62C U63A C80U G88A, the nonsense suppression is at most 0.026.

On to C12U G15C, for which the nonsense suppression was at most 0.026. For the variant C1U G15U U17G U35C U57C G78U A87G, the nonsense suppression was at most 0.026.

For G28U A33C, the nonsense suppression was at most 0.026. For U55A C79A G86A the value was at most 0.026; for U21G C83G G85A, at most 0.026; for C11G G18C G59C U63C C82G, at most 0.026. With C3A G15A G78U, the nonsense suppression is at most 0.026. As to G19C A74C C79G, the nonsense suppression is at most 0.026. In the case of C1A U21A A24U A33G, the nonsense suppression was at most 0.026. For the variant U16A C82G, the nonsense suppression was at most 0.026.

As for G7A G28C U63C, the nonsense suppression was at most 0.026. As to C64G C75U C80U, the nonsense suppression was at most 0.026. With C3U G10C A23U C83G G85A A89U, the nonsense suppression was at most 0.026. As to G6U U21A A62C, the nonsense suppression is at most 0.026. Consider G66A C79G C83G, for which the nonsense suppression is at most 0.026.

In the case of G15U A31G, the nonsense suppression was at most 0.026. As to C1G G18U G67C, the nonsense suppression was at most 0.026. For the variant G59C C77A, the nonsense suppression is at most 0.026. Take G69A C72A A74C G84C: the nonsense suppression was at most 0.026. Take C11A A14G A31C A62U: the nonsense suppression was at most 0.026. With A60U C82A, the nonsense suppression was at most 0.026.

With G7C A14U U35G C56G A60G, the nonsense suppression was at most 0.026. For the variant C11G U57G G59C A87U, the nonsense suppression was at most 0.026.

Turning to C12U G19A, the nonsense suppression is at most 0.026.

Consider C3A A87G, for which the nonsense suppression was at most 0.026. As to G26A G88U, the nonsense suppression was at most 0.026. With C29U G32A G85U A89G, the nonsense suppression was at most 0.026. Next, A13C U58A G67U G78A: at most 0.026. For U22A G28U, the nonsense suppression was at most 0.026.

With C64U A89U, the nonsense suppression was at most 0.026.

On to G32U C64U A74C, for which the nonsense suppression is at most 0.026. Regarding A14G U21G U57C, the nonsense suppression was at most 0.026.

As for G18U C34A, the nonsense suppression was at most 0.026.

Turning to U55G A62U G66C U76C, the nonsense suppression was at most 0.026. Next, C5A A9U A54C: at most 0.026; A9U C12G: at most 0.026. As for G18A A33C A62G C75G, the nonsense suppression was at most 0.026.

C1U C5A U55C: the nonsense suppression is at most 0.026. A31C A74C C80G: the nonsense suppression was at most 0.026. Regarding G61A G66C, the nonsense suppression was at most 0.026. As to C1G U21A U70C U71A, the nonsense suppression is at most 0.026.

As to G7U C27U G84C, the nonsense suppression is at most 0.026. As for C1U U16C U58G C83A G84A, the nonsense suppression is at most 0.026. Next, U22G C75A: 0.927. With C3A C11U G32A U58C A60C, the nonsense suppression was at most 0.026. In the case of A23C G66U, the nonsense suppression is at most 0.026. For the variant C3G U4G C34A G85C, the nonsense suppression was at most 0.026. In the case of A9G G25U C56A, the nonsense suppression was at most 0.026. For C27U A54G C80A the value was at most 0.026; for A33U G69U, at most 0.026. With G7C G15U G61C, the nonsense suppression is at most 0.026. Next, U2A U4A G66C A87C: at most 0.026; A23G G61U G73U: at most 0.026.

G6C U58A C81U A89C: the nonsense suppression is at most 0.026.

With A9G C77U, the nonsense suppression is at most 0.026. Turning to U35A A54C U57C G86C, the nonsense suppression is at most 0.026. For the variant G25A U55C G84A, the nonsense suppression is at most 0.026. With A54C C79U G88U, the nonsense suppression was at most 0.026. In the case of A30G C64U, the nonsense suppression is 0.0605. On to G32C U55A G66U, for which the nonsense suppression was at most 0.026. For the variant A9U G32A G66C, the nonsense suppression was at most 0.026. As to A13C C77U, the nonsense suppression amounted to 0.0493. G7A A24C G69A: the nonsense suppression is at most 0.026.

Take U2G U57A G85A: the nonsense suppression is at most 0.026. Turning to A62U G69A U71A, the nonsense suppression was at most 0.026. Next, C5A A60C C72G G85U: at most 0.026; G6U C68G G88A: at most 0.026. With U76C G88C, the nonsense suppression was at most 0.026. Turning to C34U U70A C77U, the nonsense suppression is at most 0.026. With U17C U35A U58G G78U, the nonsense suppression is at most 0.026. With U8G G26C C27U, the nonsense suppression was at most 0.026.

In the case of C11A A14C U58A G67C U70C, the nonsense suppression was at most 0.026.

Consider U17A G66A G85C, for which the nonsense suppression was at most 0.026. Turning to A23U G59A U76G, the nonsense suppression is at most 0.026. For the variant G7U G65C G66A, the nonsense suppression is at most 0.026.

For the variant C3A U22A U71C, the nonsense suppression was at most 0.026. Take U2C U55C U58G: the nonsense suppression is at most 0.026. G65U G88C: the nonsense suppression is at most 0.026.

C1U U20G A33C U58A C81G: the nonsense suppression is at most 0.026.

As for C11A A14C A31U C34U, the nonsense suppression was at most 0.026. Next, G7U A9U: at most 0.026; C3U G15A C34U C75U: at most 0.026; G32U U55A: at most 0.026.

In the case of A14G C34A, the nonsense suppression is at most 0.026. Turning to C72G A74G, the nonsense suppression was at most 0.026.

On to C1G A9U G15U G78A, for which the nonsense suppression is at most 0.026. As to G26U A33U A89G, the nonsense suppression is at most 0.026. Turning to A13G G18U A23C A54U A60U G66A, the nonsense suppression was at most 0.026. In the case of C1U G19U, the nonsense suppression was at most 0.026.

Take G32U A33G C56U G88C: the nonsense suppression was at most 0.026. Turning to U70C A74G, the nonsense suppression is at most 0.026.

Take U17C A24G A89U: the nonsense suppression was at most 0.026. Consider A9G C34G U57C, for which the nonsense suppression was at most 0.026. In the case of G18A C29A U71G C72U C80A, the nonsense suppression is at most 0.026.

As to A62G C81G, the nonsense suppression is at most 0.026.

On to A9U A74G, for which the nonsense suppression was determined as 0.0977.

Take A30G U35A C72G G78C G88C: the nonsense suppression is at most 0.026. Regarding C5A G6U A9G C11A C12G G25U G66U, the nonsense suppression is at most 0.026.

(Values after the RNAGym collection of RNA variant scans (doi:10.1101/gad.245936.114).)
